Results taken from the supplement of paper PMC10126150.
Values marked as one replicate rest on one cluster of the flow cell; about a third of the high ones do not repeat.

Each sequence was assayed on ATP (assay: switch fluorescence ratio, 500 uM ATP over buffer (Cy3 cluster intensity, sum of 5 cycles each) (fold (ratio)); higher = stronger signal-on switching upon ATP binding; sequences stand for … in TCGTCGGCAGCGTCAGATGTGTATAAGAGACAGTTTTTTTTTTTTTTTTTTTTTTTTT…TC). Conditions: aptamer strand: ATP DNA aptamer (quencher-CACCTGGGGGAGTATTGCGGAGGAAGG + anchor), 100 nM annealed; ATP concentration: 500 uM; one replicate.
Summary of the method: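 Switching-strand clusters labelled with Cy3 on a modified Illumina MiSeq flow-cell were annealed to 100 nM quencher-labelled ATP aptamer, imaged in selection buffer, and re-imaged after 15 min with 500 uM ATP at 22 °C. This was done over five cycles with NaOH stripping and re-annealing in between. The fluorescence ratio is summed target-cycle over summed buffer-cycle Cy3 intensity per cluster, averaged per switch-domain sequence, excluding clusters outside 100-1000 RFU.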
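Further: ATP exposure 15 min at 22 °C before imaging.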

Sequence | switch fluorescence ratio
CTTTGCACTT | 1.07
CTTTGGCTGG | 1.01
CTTTGGGACT | 1.01
CTTTGGGGTC | 0.981
CTTTGTCTAT | 1.02
CTTTTAAAGG | 1.03
CTTTTAAGCA | 1.06
CTTTTACACC | 1.07
CTTTTACGCT | 1.04
CTTTTAGTTC | 1.05
CTTTTGTTTT | 1.17
CTTTTTGAGT | 1
CTTTTTGCAG | 0.974
GAAAAACATA | 0.999
GAAAAATAGG | 0.998
GAAAACGCGC | 1
GAAAAGGAAG | 1.04
GAAAAGTACG | 1.02
GAAAATGAT | 1.04
GAAAATGGGC | 1.1
GAAAATTCCG | 1.02
GAAACACTC | 1.37
GAAACAGGTT | 0.985
GAAACATCAC | 1.22
GAAACCGATC | 3.16

Sequence | switch fluorescence ratio
GAAACCGATT | 1.01
GAAACGTCTA | 0.991
GAAACTGGTG | 1.01
GAAAGAGAGC | 0.956
GAAAGCACGG | 1.14
GAAAGGAATA | 1.06
GAAAGGTCG | 0.993
GAAAGGTTGT | 1.01
GAAAGTAGAC | 1.02
GAAAGTCCGT | 0.98
GAAAGTGGGC | 1.05
GAAATAATTG | 0.98
GAAATAGTTA | 0.993
GAAATCTTAA | 1.01
GAAATGAGT | 1.02
GAAATGGATG | 1.03
GAAATGGGT | 0.983
GAAATTCAGA | 1
GAAATTGGAA | 1.02
GAACAACAAT | 1.03
GAACACGTG | 1.02
GAACAGGAGC | 1.04
GAACATGGGG | 1.01
GAACCAAGTA | 0.985
GAACCACGGG | 1.07

Sequence | switch fluorescence ratio
GAACCCCGAG | 1.13
GAACCCGCTA | 2.39
GAACCCTCAC | 1.11
GAACCGACTT | 1.11
GAACGAGGTC | 0.957
GAACGATAAG | 1.01
GAACGATTAG | 0.968
GAACGCGCAG | 1.02
GAACGGGACC | 1.4
GAACGGGATC | 1.73
GAACGGTTCT | 0.956
GAACGTGTGA | 0.999
GAACTAAGAG | 0.982
GAACTAGTGG | 1.02
GAACTATTTA | 1.09
GAACTCAGGG | 1.04
GAACTCTCTG | 1.02
GAACTGCCAA | 1.07
GAACTTCATT | 0.986
GAACTTCGAC | 1.12
GAACTTGTGG | 0.987
GAACTTTCAG | 0.997
GAAGAACATA | 1.02
GAAGAACCGA | 1.09
GAAGAACTTT | 1.01

Sequence | switch fluorescence ratio
GAAGAATAGC | 0.995
GAAGAATTTA | 0.991
GAAGACAGGG | 1.01
GAAGACTAGT | 0.988
GAAGAGAGTT | 0.968
GAAGAGCTTT | 1.08
GAAGAGTTCC | 1.02
GAAGATGGAT | 0.978
GAAGATGTTC | 1.02
GAAGATTATG | 0.999
GAAGCAAAAG | 2.19
GAAGCAGAAA | 1.16
GAAGCGAGGA | 1.11
GAAGCGTGGC | 1.11
GAAGCTTTTG | 1.03
GAAGGACCCC | 1.01
GAAGGATGTT | 0.971
GAAGGCGCTG | 0.982
GAAGGGAACA | 0.972
GAAGGGAGCT | 1.02
GAAGGGCTCG | 0.949
GAAGGTCTGT | 1
GAAGGTTTCC | 0.992
GAAGTAAAAC | 1.52
GAAGTAAGTG | 0.968

Sequence | switch fluorescence ratio
GAAGTAGGCT | 0.976
GAAGTCCATC | 0.994
GAAGTCCCGG | 1.03
GAAGTCCTTT | 0.994
GAAGTCGTTG | 0.967
GAAGTGCCTT | 0.997
GAAGTTGTAA | 1.01
GAAGTTTCAG | 0.957
GAATAACCAA | 0.979
GAATAACCCC | 1.02
GAATAAGAC | 1.02
GAATACAGGT | 0.99
GAATACGCGC | 1.15
GAATAGAGCC | 0.99
GAATATAGAT | 0.994
GAATATCAGA | 0.97
GAATATGGGG | 1.02
GAATATTAGG | 1.03
GAATATTATG | 1
GAATATTCGT | 1.03
GAATCACTAC | 1.1
GAATCAGAGA | 0.997
GAATCCATAA | 0.987
GAATCCGGT | 1.02
GAATCGGTCG | 1.06

Sequence | switch fluorescence ratio
GAATCGGTGT | 0.976
GAATCTAGCT | 1.01
GAATCTATGT | 0.994
GAATCTTGCA | 1.03
GAATGAAAGG | 0.978
GAATGAACGG | 1.11
GAATGGGCGG | 0.99
GAATGGTCGG | 1
GAATGGTGGT | 0.951
GAATTAACGT | 0.976
GAATTAAGTG | 0.96
GAATTACTCA | 1.08
GAATTAGCGA | 1.07
GAATTAGTCA | 0.984
GAATTATACT | 0.995
GAATTCATGC | 1.02
GAATTCATGG | 0.957
GAATTCTCGC | 0.965
GAATTGCTTA | 1.01
GACAAATATA | 1.01
GACAAATCG | 0.978
GACAACTCTC | 1.04
GACAAGGCAT | 1.03
GACAATAATA | 1.25
GACAATGATC | 1.09

Sequence | switch fluorescence ratio
GACAATGTTG | 1.09
GACACAGACC | 1.21
GACACATGGT | 0.947
GACACGAAT | 1.05
GACACGCACT | 1.7
GACACGCTAA | 1.39
GACACGGCAG | 0.978
GACACGGGGC | 1.01
GACACGGGGG | 0.985
GACACTGGGT | 0.994
GACAGAAAAA | 1.09
GACAGAACTA | 1.1
GACAGACTGA | 1.03
GACAGGAGAT | 0.988
GACAGGCGTC | 1
GACAGGGACA | 1.05
GACAGGTGCA | 1.99
GACAGTGGAT | 1.01
GACATAACTG | 0.946
GACATAATTT | 0.987
GACATACAAA | 1.26
GACATAGTCA | 1.04
GACATATGAG | 1.04
GACATGCCG | 1.08
GACATGGTTG | 1.01

Sequence | switch fluorescence ratio
GACATTATGA | 1.02
GACATTCGGG | 1
GACCACTCTG | 1.05
GACCATCGAT | 0.995
GACCATCTAG | 0.962
GACCATTCTC | 1.03
GACCCGACCA | 1.17
GACCCTCAGT | 1
GACCCTGCTG | 1.07
GACCGACAGC | 1.4
GACCGCTGTG | 0.93
GACCGGCAAG | 1.06
GACCGGTGTT | 0.942
GACCGGTTT | 0.994
GACCGTTGTC | 0.984
GACCTAGCGA | 1.59
GACCTAGGCA | 0.988
GACCTAGTTT | 1
GACCTGGGCA | 0.993
GACCTTCATT | 1.26
GACGAGAT | 2.31
GACGAGATGG | 1.02
GACGAGCAAG | 1.18
GACGATGGGG | 1.03
GACGATGTTG | 1.02
